This passage reports AUC and IC50 results from the supplement of paper PMC4967469.

Lines with a small IC50 respond at low doses; a limit (>, <) means that the fit lies beyond the doses tested. AUC, from the same fit, is the share of area under the viability curve across the 256-fold dose range; the more sensitive the line, the further below 1.

Compound in this assay: FC(F)c1nc2ccccc2n1-c1nc(N2CCOCC2)nc(N2CCOCC2)n1 [ZSTK474]
Briefly: Viability of human cancer cell lines after 72 h of drug (GDSC screen). The protocol:
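Human cancer cell lines in 384-well plates, medium with 10% serum, drug for 72 h over a 256-fold dose range (nine 2-fold or five 4-fold steps up to the top dose). Adherent lines were fixed and stained with the nucleic acid dye Syto60, suspension lines read with resazurin; signal relative to control wells, capped at 0 and 100%. One two-parameter sigmoid per drug and line, fitted in a mixed model over all curves with the slope shared within a line.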

As for “HT-1080 (fibrosarcoma, adherent, top dose 5.12 µM)”, the AUC worked out at 0.95 and the concentration for half-maximal inhibition (IC50) was greater than 5120 nM.

In the case of “HT-1197 (bladder, adherent, top dose 5.12 µM)”, the AUC turned out to be 0.92 and the 50% inhibitory concentration (IC50) is greater than 5120 nM.

On to “HT-1376 (bladder, adherent, top dose 5.12 µM)”, for which the AUC came out at 0.973 and the half-maximal inhibitory concentration (IC50) was greater than 5120 nM.

With “HTC-C3 (thyroid, adherent, top dose 5.12 µM)”, the AUC turned out to be 0.698 and the half-maximal inhibitory concentration (IC50) amounted to 1250 nM.

“HUTU-80 (digestive system, adherent, top dose 5.12 µM)”: the AUC was determined as 0.545 and the IC50 was 414 nM.

For “HeLa (cervix, adherent, top dose 5.12 µM)”, the AUC was determined as 0.948 and the 50% inhibitory concentration (IC50) is greater than 5120 nM.

As for “Hep 3B2_1-7 (liver, adherent, top dose 5.12 µM)”, the AUC came to 0.909 and the half-inhibitory concentration (IC50) is greater than 5120 nM.

As for Hey (ovary, adherent, top dose 5.12 µM), the AUC worked out at 0.829 and the concentration for half-maximal inhibition (IC50) is 2950 nM.

As for “Hs633T (fibrosarcoma, adherent, top dose 5.12 µM)”, the AUC is 0.874 and the IC50 was 3490 nM.

Consider “Hs683 (glioma, adherent, top dose 5.12 µM)”, for which the AUC came out at 0.854 and the IC50 stood at 4120 nM.

“Hs746T (stomach, adherent, top dose 5.12 µM)”: the AUC worked out at 0.525 and the half-maximal inhibitory concentration (IC50) was determined as 383 nM.

In the case of “Hs766T (pancreas, adherent, top dose 5.12 µM)”, the AUC came out at 0.886 and the 50% inhibitory concentration (IC50) is greater than 5120 nM.

For “Hs939-T (melanoma, adherent, top dose 5.12 µM)”, the AUC is 0.962 and the IC50 was greater than 5120 nM.

As for “Hs940-T (melanoma, adherent, top dose 5.12 µM)”, the AUC amounted to 0.899 and the IC50 was greater than 5120 nM.

As to “Hs-445 (Hodgkin lymphoma, suspension, top dose 5.12 µM)”, the AUC was determined as 0.392 and the IC50 amounted to 166 nM.

As for “Hs-578-T (breast, adherent, top dose 5.12 µM)”, the AUC came out at 0.987 and the IC50 is greater than 5120 nM.

Take “HuCCT1 (biliary tract, adherent, top dose 5.12 µM)”: the AUC worked out at 0.57 and the IC50 stood at 510 nM.

Take “HuH-7 (liver, adherent, top dose 5.12 µM)”: the AUC was determined as 0.826 and the IC50 was 3100 nM.

In the case of “HuO9 (osteosarcoma, adherent, top dose 5.12 µM)”, the AUC amounted to 0.554 and the IC50 stood at 457 nM.

As for “HuO-3N1 (osteosarcoma, adherent, top dose 5.12 µM)”, the AUC amounted to 0.819 and the half-inhibitory concentration (IC50) was determined as 4210 nM.

“HuP-T3 (pancreas, adherent, top dose 5.12 µM)”: the AUC was determined as 0.732 and the concentration for half-maximal inhibition (IC50) is 1730 nM.

Regarding “HuP-T4 (pancreas, adherent, top dose 5.12 µM)”, the AUC came out at 0.728 and the IC50 is 1490 nM.

On to “IA-LM (large cell lung carcinoma, adherent, top dose 5.12 µM)”, for which the AUC amounted to 0.895 and the IC50 is greater than 5120 nM.

Turning to “IGR-1 (melanoma, adherent, top dose 5.12 µM)”, the AUC stood at 0.877 and the IC50 was found to be 4050 nM.

As to “IGR-37 (melanoma, adherent, top dose 5.12 µM)”, the AUC turned out to be 0.974 and the 50% inhibitory concentration (IC50) was greater than 5120 nM.

For “IHH-4 (thyroid, semi-adherent, top dose 5.12 µM)”, the AUC was 0.978 and the half-maximal inhibitory concentration (IC50) is greater than 5120 nM.

With “IM-95 (stomach, adherent, top dose 5.12 µM)”, the AUC amounted to 0.58 and the IC50 was found to be 536 nM.

On to “IMR-5 (neuroblastoma, adherent, top dose 5.12 µM)”, for which the AUC was 0.865 and the IC50 is 3390 nM.

Consider “IPC-298 (melanoma, adherent, top dose 5.12 µM)”, for which the AUC came out at 0.857 and the IC50 came to 4040 nM.

As to “IST-MEL1 (melanoma, adherent, top dose 5.12 µM)”, the AUC amounted to 0.692 and the IC50 came to 1240 nM.

As to “IST-MES1 (mesothelioma, adherent, top dose 5.12 µM)”, the AUC was 0.938 and the IC50 is greater than 5120 nM.

Turning to “IST-SL1 (small cell lung carcinoma, semi-adherent, top dose 5.12 µM)”, the AUC worked out at 0.779 and the IC50 was determined as 2160 nM.

For the cell line “IST-SL2 (small cell lung carcinoma, suspension, top dose 5.12 µM)”, the AUC was found to be 0.566 and the half-maximal inhibitory concentration (IC50) worked out at 483 nM.

For “J82 (bladder, adherent, top dose 5.12 µM)”, the AUC turned out to be 0.956 and the IC50 was greater than 5120 nM.

As for “JAR (urogenital system, adherent, top dose 5.12 µM)”, the AUC turned out to be 0.851 and the IC50 is 3790 nM.

Regarding “JEG-3 (urogenital system, adherent, top dose 5.12 µM)”, the AUC came to 0.968 and the IC50 is greater than 5120 nM.

Turning to “JHH-1 (liver, adherent, top dose 5.12 µM)”, the AUC was found to be 0.468 and the IC50 amounted to 260 nM.

Regarding “JHH-2 (liver, adherent, top dose 5.12 µM)”, the AUC amounted to 0.873 and the IC50 is greater than 5120 nM.

For the cell line “JHH-4 (liver, adherent, top dose 5.12 µM)”, the AUC worked out at 0.786 and the IC50 came to 2200 nM.

For the cell line “JHH-6 (liver, adherent, top dose 5.12 µM)”, the AUC came to 0.912 and the IC50 is greater than 5120 nM.

“JHH-7 (liver, adherent, top dose 5.12 µM)”: the AUC was 0.922 and the 50% inhibitory concentration (IC50) was greater than 5120 nM.

Take “JHOS-2 (ovary, adherent, top dose 5.12 µM)”: the AUC amounted to 0.851 and the IC50 worked out at 4980 nM.

With “JHOS-3 (ovary, adherent, top dose 5.12 µM)”, the AUC came out at 0.84 and the IC50 worked out at 5070 nM.

Take “JHU-011 (head and neck, adherent, top dose 5.12 µM)”: the AUC amounted to 0.745 and the IC50 amounted to 1590 nM.

Regarding “JHU-022 (head and neck, adherent, top dose 5.12 µM)”, the AUC was 0.799 and the half-maximal inhibitory concentration (IC50) is 3250 nM.

Consider “JIMT-1 (breast, adherent, top dose 5.12 µM)”, for which the AUC was 0.777 and the IC50 worked out at 2230 nM.

For “JJN-3 (haematopoietic neoplasm, suspension, top dose 5.12 µM)”, the AUC came out at 0.737 and the IC50 is 1300 nM.

For “JM1 (B-cell lymphoma, suspension, top dose 5.12 µM)”, the AUC amounted to 0.743 and the IC50 was found to be 1400 nM.

Turning to “JSC-1 (B-cell lymphoma, suspension, top dose 5.12 µM)”, the AUC amounted to 0.704 and the half-inhibitory concentration (IC50) worked out at 1190 nM.

Consider “JURL-MK1 (chronic myeloid leukaemia, suspension, top dose 5.12 µM)”, for which the AUC was found to be 0.776 and the IC50 was 2040 nM.

For “JVM-2 (lymphoid neoplasm, suspension, top dose 5.12 µM)”, the AUC came to 0.939 and the concentration for half-maximal inhibition (IC50) was greater than 5120 nM.

For the cell line “JVM-3 (lymphoid neoplasm, suspension, top dose 5.12 µM)”, the AUC turned out to be 0.969 and the IC50 is greater than 5120 nM.

On to “JiyoyeP-2003 (Burkitt lymphoma, suspension, top dose 5.12 µM)”, for which the AUC turned out to be 0.849 and the IC50 was found to be 3160 nM.

“K2 (melanoma, adherent, top dose 5.12 µM)”: the AUC is 0.849 and the concentration for half-maximal inhibition (IC50) is greater than 5120 nM.

With “K5 (thyroid, adherent, top dose 5.12 µM)”, the AUC was determined as 0.653 and the half-maximal inhibitory concentration (IC50) is 834 nM.

On to “KALS-1 (glioma, adherent, top dose 5.12 µM)”, for which the AUC is 0.744 and the IC50 was found to be 2120 nM.

As to “KARPAS-45 (lymphoblastic leukaemia, suspension, top dose 5.12 µM)”, the AUC came out at 0.197 and the IC50 came to 50 nM.

On to “KARPAS-299 (anaplastic large cell lymphoma, suspension, top dose 5.12 µM)”, for which the AUC amounted to 0.889 and the IC50 amounted to 4130 nM.

“KARPAS-422 (B-cell lymphoma, suspension, top dose 5.12 µM)”: the AUC turned out to be 0.896 and the concentration for half-maximal inhibition (IC50) was greater than 5120 nM.

With “KARPAS-620 (haematopoietic neoplasm, suspension, top dose 5.12 µM)”, the AUC is 0.297 and the IC50 is 94.5 nM.

Turning to “KASUMI-1 (acute myeloid leukaemia, suspension, top dose 5.12 µM)”, the AUC was 0.184 and the 50% inhibitory concentration (IC50) stood at 36 nM.

For the cell line “KCL-22 (chronic myeloid leukaemia, suspension, top dose 5.12 µM)”, the AUC is 0.687 and the IC50 stood at 965 nM.

As for “KE-37 (lymphoblastic leukaemia, suspension, top dose 5.12 µM)”, the AUC is 0.258 and the IC50 was determined as 80.2 nM.

On to “KELLY (neuroblastoma, adherent, top dose 5.12 µM)”, for which the AUC was 0.836 and the concentration for half-maximal inhibition (IC50) was determined as 2960 nM.

On to “KG-1 (acute myeloid leukaemia, suspension, top dose 5.12 µM)”, for which the AUC came to 0.758 and the half-inhibitory concentration (IC50) is 1600 nM.

For the cell line KGN (ovary, adherent, top dose 5.12 µM), the AUC was found to be 0.452 and the 50% inhibitory concentration (IC50) stood at 230 nM.
